Results taken from PubChem BioAssay AID624296 (National Center for Advancing Translational Sciences (NCATS), 2012).
Out of some 350,000 compounds screened, about 9,900 (2.8%) were called active. The inconclusive results got no clear call from the source; some entries with a clear call stand among them for comparison. Calls come from the whole dose curve; as a rule, active = well fitted activation curve with a large enough effect; inconclusive = small, poorly fitted or top-dose-only effect; inactive = no such curve, though single readings can be large or run the other way. Potencies of inconclusive entries are left out as doubtful fits.

Test: A quantitative high throughput screen for small molecules that induce DNA re-replication in MCF 10a normal breast cells. For activity, positive = re-replication: % of control where 0% means no effect. Note: nearly all actives have a fitted effect of over 50% in size.
Details: MCF 10A DNA re-replication, Hoechst nuclear intensity, 48 h; activity, positive = re-replication: at 46.1 µM (top of the series)
Potency is the fitted concentration of half-maximal effect; tags give direction and shape of the fitted curve.

SMILES | Potency | activity, positive = re-replication
CCN1CCCC1CNC(=O)Cn1cc(C)c(=O)[nH]c1=O (stereo not given) | inconclusive [activator, full curve, poor fit] | –
CC(C)(C)c1ccc(/C=N/NC(=O)Cc2c[nH]c3ccccc23)cc1 | inconclusive [activator, single point] | –
O=C(Nc1ccc(Cl)cc1)NC1CCCCNC1=O (stereo not given) | – | inactive: 0.609%
C=CCNC(=S)NNC(=O)c1cc(-c2cccnc2)nc2ccccc12 | – | inactive: -0.102%
COc1ccc(NC(=S)Nc2cc(-c3ccccc3)[nH]n2)cc1Cl | inconclusive [activator, single point] | –
CC(C)(C)C(=O)[C@@H]1[C@@H]2C(=O)N(C3CCCCC3)C(=O)[C@@H]2[C@H]2c3ccccc3C=CN12 | inconclusive [activator, single point] | –
Cc1ccc(N2CC(C(=O)OCC(=O)NNC(=O)c3ccccc3)CC2=O)cc1 (stereo not given) | – | inactive: 0.204%
c1ccc(-c2nc(SCc3nc4ccccc4[nH]3)c3oc4ccccc4c3n2)cc1 | inconclusive [activator, single point] | –
COc1ccc(C(=O)c2sc(Nc3ccccc3)nc2C)cc1 | inconclusive [activator, single point] | –
COC(=O)c1c(NC(=O)c2ccco2)sc2c1CCC2 | inconclusive [activator, single point] | –
Nc1ccc(NC(=O)c2cccc(C(=O)Nc3ccc(N)cc3Cl)c2)c(Cl)c1 | inconclusive [activator, single point] | –
Cc1cccc(NC(=O)CN2CCN(CC(=O)Nc3cccc(C)c3)CC2)c1 | active: 20.6 µM | –
COc1cc(N2CCCC2)c(OC)cc1/C=C(/C#N)c1ccc(Br)cc1 | active: 23.1 µM | –
O=C(Nc1scc(-c2ccc(Br)cc2)c1C(=O)O)c1ccccc1F | inconclusive [activator, single point] | –
Cn1nc(-c2ccccn2)nc2c(=O)n(C)c(=O)nc1-2 | active: 2.91 µM | –
Cn1c(=O)c2c(nc(CN3CCN(C(=O)c4ccco4)CC3)n2CC(=O)C(C)(C)C)n(C)c1=O | inconclusive [activator, single point] | –
CNc1ccc(Br)cc(C(=O)/C=C/c2ccc(OC)cc2OC)c1=O | inconclusive [activator, single point] | –
CC(C)CNc1ncnc2[nH]ncc12 | – | inactive: 2.76%
COC(=O)CCC(=O)NC(=S)Nc1ccc(S(=O)(=O)Nc2cc(OC)nc(OC)n2)cc1 | – | inactive: -4.07%
CCc1ccc(C(=O)NC2CCCCC2)s1 | inconclusive [activator, single point] | –
